Data: the supplement of paper PMC5655136
Values come from read counts of a selection and are noisy.

System: NB7
Experiment: fold depletion of shRNA, plasmid library share / infected cells without Dox share (9 days) (ratio); higher = more depleted after infection (more toxic, leaky expression from a Tet-inducible vector; NB7 is a neuroblastoma line without caspase-8)
[1] = shRNA pool: CD95L ORF + CD95L 3'UTR + Venus libraries
[2] = shRNA pool: CD95 ORF + CD95 3'UTR + Venus libraries
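Also: shRNA barcodes quantified by deep sequencing of PCR amplicons from cellular DNA, counts expressed as percent of each subpool, ratio averaged over two biological duplicates.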

Sequence	fold depletion of shRNA [1]	fold depletion of shRNA [2]
TTGCTACCTCAAGGGGGACTG	0.841	–
TTGCTAGATTATCGTCCAAAA	–	0.768
TTGCTCTTGTCATACCCCCAA	–	6.31
TTGCTGGAGTCATGACACTAA	–	0.87
TTGGAATTATAAAATATAGGT	–	1.26
TTGGAATTGAGGAAGACTGTT	–	0.777
TTGGAGATACTAACTGCTCTC	–	4.2
TTGGCATCAACTTCATGGAAA	–	3.69
TTGGGAAAACAAACTTCATCA	–	1.88
TTGGGATTCTTTCCATTATGA	1.48	–
TTGGGGACTCATTTCATTCCT	1.2	–
TTGGGGTGGCTTTGTCTTCTT	–	0.242
TTGGGTGAAGAGAAAGGAAGT	–	1.19
TTGGTCAAGATTTTGAATGCT	6.78	–
TTGGTGTCATATTATACAATA	–	0.907
TTGGTTTTTTACTGGGTACAT	–	0.89
TTGTAACTCTACTGTATGTGA	–	0.983
TTGTACTCTTGCAGAGAAAAT	–	1.17
TTGTAGATTTTTAATATCTCA	–	1.44
TTGTATATTCCAAAGTATACT	0.63	–
TTGTATTAAATGTGAATTTTA	–	0.832
TTGTATTCAGTGAGGGTCTTC	2.61	–
TTGTCAGCTACTAATGATGTT	5.27	–

Sequence	fold depletion of shRNA [1]	fold depletion of shRNA [2]
TTGTCATACCCCCAAGTTTCT	–	2.55
TTGTCCTGCTTTCTGGAGTGA	5.44	–
TTGTCTTCTTCTTTTGCCAAT	–	0.804
TTGTGAAATGAAAACATGTAA	1.18	–
TTGTGAAGTACATATTAGGAA	0.812	–
TTGTGAATTCACATAGAAAAC	–	1.17
TTGTGACATGTCATGAACCCA	–	3.72
TTGTGACCTGAGGATTTAAGG	2.95	–
TTGTGATCAATGAAACTGGGC	1.65	–
TTGTGATGTTTTTCATGGTTC	1.07	–
TTGTGTGATGAAGGACATGGC	–	2.13
TTGTGTTTGGAATTATAAAAT	–	2.06
TTGTTACAGGCACCGAGAATG	1.96	–
TTGTTTATAACTCTGAGAAGA	–	1.03
TTGTTTGGGTGAAGAGAAAGG	–	0.907
TTTAAAATCTAGTTGGGAAAA	–	0.498
TTTAAATAAGGCTCTACCTCA	–	6.31
TTTAAATATCTTTGAAAGTTT	–	1.13
TTTAAATCCTGAAACAGTGGC	–	1.02
TTTAACAGGCAAGTCCAACTC	0.807	–
TTTAACTCACCTCTCAAGGTG	0.639	–
TTTAAGAAATAATATTTATAT	–	1.06
TTTAAGATTCTCCTTACTACT	–	0.895

Sequence	fold depletion of shRNA [1]	fold depletion of shRNA [2]
TTTAAGGGATGGAAAAGGAAG	1.3	–
TTTAATATCTCATGATTCTGC	–	1.14
TTTACCATATTTCTAAACTTT	–	0.669
TTTACTGGCTCAAAACTACCT	–	16.7
TTTACTGGGTACATTTTATCA	–	1.66
TTTAGGCAGATTGAAAAGGAC	1	–
TTTATAACTCTGAGAAGATCA	–	1.63
TTTATATGTCAACGTATCTGA	0.998	–
TTTATATTTCTGTAAATGTAA	–	0.832
TTTATCATTTATTAGCGCTGA	–	1.44
TTTATCTGATGTTGACTTGAG	–	1.09
TTTATGTAAAGTATATGTATT	–	1.15
TTTATGTAGATGTGCATTTTT	2.11	–
TTTATTGGTGTCATATTATAC	–	0.81
TTTCAATTGTGAATTCACATA	–	1.08
TTTCAGATACATGGTTGTGAC	7.16	–
TTTCAGCTCTTCCACCTACAG	3.05	–
TTTCATGGTTCTGGTTGCCTT	2.76	–
TTTCCATTATGATTCTTTGTT	0.655	–
TTTCCCCCACCCCCGAAAATG	–	11
TTTCCTATAATATAATAAATA	0.699	–
TTTCGGCTTATATAAGCTCTA	1.26	–
TTTCTAAACTTTGTTTATAAC	–	1.2

Sequence	fold depletion of shRNA [1]	fold depletion of shRNA [2]
TTTCTAAGATTTAAGATTCTC	–	0.647
TTTCTGGAGTGAAGTATAAGA	0.702	–
TTTCTGTAAATGTAAACTGTG	–	1.72
TTTCTTCCAAATGCAGAAGAT	–	0.855
TTTGAAAAGATTCTTAATAGC	–	0.799
TTTGAAAGTTTGTATTAAATG	–	0.991
TTTGAATGCTTCCTGACAATC	2.59	–
TTTGACTATTATATATGTGTA	–	0.728
TTTGAGCAGGAGAGTATTACT	–	0.896
TTTGAGGAATCTCAGACGTTT	2.33	–
TTTGAGGTCAAGTAAGAAGAC	6.24	–
TTTGAGTGCAGAATTTAAATA	–	1.2
TTTGCAATCAAAGATGATAAA	–	0.98
TTTGCACAGTTTATTGGTGTC	–	2.99
TTTGCCCCTTGTGTTTGGAAT	–	3.03
TTTGCCTCTAAATTACCTCTG	–	0.487
TTTGCTGAAATATCAGTTACT	–	1.43
TTTGGAATTATAAAATATAGG	–	0.596
TTTGGAGAAGCAAATAGGCCA	0.903	–
TTTGGAGATACTAACTGCTCT	–	2.3
TTTGGGATTCTTTCCATTATG	0.918	–
TTTGGGTGAAGAGAAAGGAAG	–	1.72
TTTGGTCAAGATTTTGAATGC	0.636	–

Sequence	fold depletion of shRNA [1]	fold depletion of shRNA [2]
TTTGTAACTCTACTGTATGTG	–	0.846
TTTGTACTCTTGCAGAGAAAA	–	0.599
TTTGTAGATTTTTAATATCTC	–	1.36
TTTGTATATTCCAAAGTATAC	0.531	–
TTTGTATTAAATGTGAATTTT	–	0.696
TTTGTCTTCTTCTTTTGCCAA	–	1.95
TTTGTGAAATGAAAACATGTA	1.82	–
TTTGTGACATGTCATGAACCC	–	21.4
TTTGTTACAGGCACCGAGAAT	3.7	–
TTTGTTCGAAAGAATGGTGTC	–	0.672
TTTGTTTATAACTCTGAGAAG	–	0.835
TTTTAACTCACCTCTCAAGGT	1.12	–
TTTTAAGAAATAATATTTATA	–	0.819
TTTTAATATCTCATGATTCTG	–	0.881
TTTTACCATATTTCTAAACTT	–	0.75
TTTTACTGGGTACATTTTATC	–	0.905
TTTTATCATTTATTAGCGCTG	–	1.73
TTTTCCCCCACCCCCGAAAAT	–	12.7
TTTTCCTATAATATAATAAAT	1.14	–
TTTTCGGCTTATATAAGCTCT	0.711	–
TTTTCTTCCAAATGCAGAAGA	–	0.903
TTTTGAATGCTTCCTGACAAT	2.42	–
TTTTGAGCAGGAGAGTATTAC	–	1.47
